42 compounds from ChEMBL document CHEMBL4888484, “Replenishing the malaria drug discovery pipeline: Screening and hit evaluation of the MMV Hit Generation Library 1 (HGL1) against asexual blood stage Plasmodium falciparum ,using a nano luciferase reporter read-out” (2022) can be followed below.

SMILES strings stand for the structures. The campaign covered roughly 150,000 compounds. About 540 (0.36%) showed an effect of 50% or more. The list shows a part of the results.

The subject of the experiment is Plasmodium falciparum. As to the kind of experiment: Primary screen in NF54 nanoGlo assay, in single point, at 2uM, 72h; a lower Z score goes with more inhibition. The note with it: timepoint 72 hour. The class given is functional, Erythrocyte.
`N#CC1CCC(NCC(c2ccco2)N2CCCC2)C1` (centres undefined): the % Inhibition – broadly, the change of the read-out against control, counted positive when it falls – is -10% and the Z score was found to be 1.42.

In the case of `O=C(Nc1ccccc1-c1ncco1)[C@H]1CCCO1`, the “% Inhibition” value stood at 10% and the Z score was -1.49.

Consider `O=C(CCc1ccc(F)c(F)c1)NCc1noc([C@@H]2CCCO2)n1`, for which the “% Inhibition” value was -7% and the Z score was 1.29.

With `O=C(c1ccc2c(c1)CCC2)N1CC(O)C1`, the “% Inhibition” value was 0% and the Z score is 0.

Consider `CCN1CCCN(CCOc2cccc(C#N)c2)CC1`, for which the “% Inhibition” value is reported as -1% and the Z score was 0.11.

Regarding `Cc1nnnn1Cc1ccc(C(=O)N2CC[C@@](O)(c3ccccc3)[C@H]3CCCC[C@H]32)cc1`, the “% Inhibition” value is recorded as -6% and the Z score is on record as 0.59.

In the case of `CCC(CC)NC(=O)c1ccccc1Br`, the “% Inhibition” value is -7% and the Z score is given as 1.32.

As for `COCCOCC(=O)N1CCC2(CC1)c1[nH]c3ccc(OC)cc3c1CCN2C`, the “% Inhibition” value came to 3% and the Z score is listed as -0.59.

On to `O=C(COc1ccc(F)cc1)NCCNC(=O)c1nc(-c2ccc(F)cc2)no1`, for which the “% Inhibition” value is listed as -10% and the Z score was 1.36.

For the compound `Cc1ncsc1CN1C[C@@H](F)C[C@H]1CN(C)c1nnc(C2CC2)o1`, the “% Inhibition” value was found to be 24% and the Z score is recorded as -2.73.

For `Cn1nccc1[C@@H]1CN(C(=O)CC2CCCCC2)C[C@H]1N`, the “% Inhibition” value is given as -4% and the Z score came out at 0.65.

In the case of `CC(=O)Nc1ccc(-c2nccn2-c2cnc3ccccc3c2)cc1`, the “% Inhibition” value is -8% and the Z score was determined as 1.15.

For `CCN=C(NCc1sc(C)nc1C)NC[C@@H](c1ccco1)N(C)C`, the “% Inhibition” value is -12% and the Z score was 1.74.

Turning to `CCC(=O)N(CC(=O)N1CCc2sccc2[C@@H]1COc1ccc(C)cc1)CC1CC1`, the “% Inhibition” value is given as -2% and the Z score was determined as 0.18.

Regarding `COc1ccc(CN[C@H]2CCC23CCOCC3)c(OC)n1`, the “% Inhibition” value is reported as -7% and the Z score worked out at 0.87.

As to `CCS(=O)(=O)NC(=O)[C@H]1CCN(CC(F)(F)F)C1`, the “% Inhibition” value worked out at 6% and the Z score is -1.03.

Regarding `Cn1cc(Cl)cc1C(=O)NCC1(O)CN(C(=O)OC(C)(C)C)C1`, the “% Inhibition” value is listed as -13% and the Z score stood at 1.42.

`C[C@H](NC(=O)CN1CCc2[nH]ncc2C1)c1cccs1`: the “% Inhibition” value is -1% and the Z score was 0.07.

Take `COCCN(CC(=O)NCCN1C(=O)Cc2ccccc21)C(=O)OC(C)(C)C`: the “% Inhibition” value turned out to be 3% and the Z score was -0.32.

Regarding `CCn1nccc1C(=O)N1C[C@H]2CC[C@@H](C1)N(Cc1c(C)noc1C)C2=O`, the “% Inhibition” value is -11% and the Z score came out at 1.22.

As to `CC(=O)N1c2ccccc2C2(O)CC3C(=O)NC(CC(C)C)C(=O)N3C12` (centres undefined), the “% Inhibition” value was determined as 30% and the Z score is given as -3.4.

Consider `O=C(NCCCOCC1CCOCC1)C1(C2CC2)CCOCC1`, for which the “% Inhibition” value is on record as -8% and the Z score is recorded as 1.01.

As for `C[C@]1(O)CCN(c2ncccc2C#N)C[C@H]1Cc1ccccc1`, the “% Inhibition” value was -1% and the Z score is 0.09.

In the case of `O=C1[C@H](c2cn(Cc3ccccc3)c3ccccc23)CC(c2ccccc2)=NN1Cc1ccccc1`, the “% Inhibition” value is -4% and the Z score is 0.79.

In the case of `CC(C)c1cc(N[C@H]2CCC[C@H]2C(N)=O)nc(N)n1`, the “% Inhibition” value is given as -11% and the Z score worked out at 1.41.

In the case of `COc1cccc(CNCc2c(C(=O)O)c(C)n(-c3ccccc3)c2C)c1`, the “% Inhibition” value is listed as -5% and the Z score came out at 1.01.

Take `Cc1ccc(-c2cc(CN(Cc3ccc(F)cc3)C(=O)NC(C)C)no2)c(C)c1`: the “% Inhibition” value was found to be 8% and the Z score is given as -1.06.

As for `CCO[C@H]1COC[C@@H]1NC(=O)Cc1c(C)n[nH]c1C`, the “% Inhibition” value is given as -1% and the Z score is 0.23.

`CCc1noc(CC)c1CNC(=O)NCc1ccon1`: the “% Inhibition” value is reported as 23% and the Z score was -2.6.

Take `CCCC1(C2CCN(Cc3ccccc3-c3ccco3)CC2)NC(=O)N(CCC2CCCN2C)C1=O` (centres undefined): the “% Inhibition” value is 10% and the Z score is given as -1.29.

As to `Cc1ccc(C(=O)NCC2CCCC23NC(=O)NC3=O)c2c1CCC2` (centres undefined), the “% Inhibition” value was 6% and the Z score is reported as -0.99.

`CCOc1cccc(CN2C(=O)C3(CCOCC3)C[C@H]2c2nnnn2C(C)(C)C)c1`: the “% Inhibition” value is given as -17% and the Z score is on record as 2.65.

As to `O=C1OCC[C@H]2CN(c3ncc(Br)cc3F)CCN12`, the “% Inhibition” value is on record as 35% and the Z score is given as -3.95.

Take `O=C(Cn1nnc2c1CCCC2)N[C@@H]1c2ccccc2CC[C@@H]1O`: the “% Inhibition” value was -3% and the Z score was found to be 0.43.

As for `CCNC(=O)N(C)c1cccc(NC(=O)N2CCO[C@](C)(C3CC3)C2)c1`, the “% Inhibition” value is -5% and the Z score is reported as 0.67.

For `CCCN(CC1CC1)C(=O)NCc1sc(C)nc1C`, the “% Inhibition” value was -10% and the Z score came out at 1.43.

For `O=C([C@H]1CCCN(C2CCN(Cc3ccccc3F)CC2)C1)N1CCCC1`, the “% Inhibition” value was -10% and the Z score amounted to 1.34.

Regarding `CN1CCN(C(=O)C[C@]2(c3ccccc3)CC(=O)N(CC3CCCCC3)C2=O)CC1`, the “% Inhibition” value turned out to be 5% and the Z score is recorded as -0.81.

As for `O=C(CCc1cc2n(n1)CCCN(Cc1ccsc1)C2)NCCO`, the “% Inhibition” value came out at 1% and the Z score was -0.09.

As to `COc1ccc(CNC(=O)[C@]2(C)Cn3nc(-c4cccs4)cc3C(=O)N2c2cc(C)ccc2C)cc1`, the “% Inhibition” value was -3% and the Z score is listed as 0.54.

For `COC[C@@]1(C)CCN(C(=O)NCc2ccnc(OC(F)F)c2)C1`, the “% Inhibition” value is reported as -14% and the Z score turned out to be 1.42.

With `O=C(NCC1CCN(Cc2cccc(Cl)c2)CC1)c1n[nH]c2c1CCc1ccccc1-2`, the “% Inhibition” value was -20% and the Z score is reported as 1.78.
